# Results published in PubChem BioAssay (NCATS).
# Where “and” joins values, the source holds several entries; their conditions need not be identical. Equal values may be shown once. This list was built around the results that the source calls inconclusive (neither active nor inactive); the mix of calls is not that of the screen. Potencies of inconclusive entries are doubtful fits and often do not repeat. A structure can be active in one record and inactive in another. Calls of active or inactive are those of the source. Calls come from the whole dose curve; as a rule, active = well fitted curve in the direction sought with a large enough effect; inconclusive = small, poorly fitted or top-dose-only effect, or another doubt; inactive = no such curve, though single readings can be large; an effect the other way counts as inactive or inconclusive.
# Legend:
# [1] = target: Cytochrome P450 3A7 (Homo sapiens) (UniProt P24462); test: Cytochrome P450 family 3 subfamily A member 7 (CYP3A7) small molecule antagonists: luciferase biochemical qHTS assay (AID 1963596); note: nearly all actives have a fitted effect of over 40% in size
# Outline: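 Luminescence read-out (relative luminescence units) after 20 min with detection reagent, which stops the reaction. Enzyme, proluciferin substrate and compound preincubated 10 min, RT; NADPH regeneration system then started 1 h reaction. Ketoconazole as positive control.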
# [2] = Viability qHTS for spleen associated tyrosine kinase inhibitor (SYKi) naive MV4-11 cells (AID 1963823); conditions: MV4-11 AML viability, CellTiter-Glo luminescence, 72 h; viability (% of control): at 45 µM (top of the series); note: nearly all actives have a fitted effect of over 40% in size
# Outline: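 Seeding of 500 SYKi-naive MV4-11 cells per well onto pre-dispensed compounds preceded a 72 hr incubation at 37 C. Luminescent CellTiter-Glo signal, read after 10 min at room temperature, reflected viable cells.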
# [3] = Viability qHTS for spleen associated tyrosine kinase inhibitor (SYKi) drug resistant MV4-11 cells (AID 1963824); note: nearly all actives have a fitted effect of over 35% in size
# Outline: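 CellTiter-Glo luminescence, read 10 min after reagent addition, reports viability after a 72 hr compound exposure. Cells are an MV4-11 line made resistant to SYK inhibition, seeded at 500 per well onto compound-containing plates.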
# [4] = Quantitative highthroughput screen to assess conditional lethalithy of NOMO1 cells grown in RPMI1640 with untreated serum (RPMI+s) (AID 1963876); conditions: NOMO1 AML cells in RPMI+serum, CellTiter-Glo viability, 48 h; viability: at 45.8 µM (top of the series); note: nearly all actives have a fitted effect of over 35% in size;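 for Viability: 100% = DMSO wells and 0% = empty wells without cells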
# Outline: (§1)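 Each medium arm—HPLM with 10% dialyzed FBS, or RPMI1640 with 5 mM glucose and 10% untreated or dialyzed FBS—was screened against an 11-point, 3-fold compound titration for 48 h at 37 °C, with CellTiter-Glo luminescence as endpoint.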
# [5] = Quantitative highthroughput screen to assess conditional lethalithy of NOMO1 cells grown in RPMI1640 with dialyzed fetal bovine serum (RPMI+ds) (AID 1963877); note: nearly all actives have a fitted effect of over 30% in size;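 for Viability: 100% = DMSO control wells and 0% = empty wells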
# Outline: as §1
# [6] = Quantitative highthroughput screen to assess conditional lethalithy of NOMO1 cells grown in Human Plasma-Like Medium with dialyzed fetal bovine serum (HPLM+ds) (AID 1963878); conditions: NOMO1 AML cells in HPLM+ds, CellTiter-Glo viability, 48 h; viability: at 45.8 µM (top of the series); note: nearly all actives have a fitted effect of over 35% in size
# Outline: as §1
# [7] = Quantitative highthroughput screen to assess conditional lethalithy of P12 Ichikawa cells grown in Human Plasma-Like Medium with dialyzed fetal bovine serum (HPLM+ds) (AID 1963879); conditions: Potency: viability; note: nearly all actives have a fitted effect of over 35% in size
# Outline: as §1
# [8] = Quantitative highthroughput screen to assess conditional lethalithy of P12 Ichikawa cells grown in RPMI1640 with dialyzed fetal bovine serum (RPMI+ds) (AID 1963880); conditions: Potency: P12-Ichikawa viability; note: nearly all actives have a fitted effect of over 35% in size
# Outline: as §1
# [9] = Quantitative highthroughput screen to assess conditional lethalithy of P12 Ichikawa cells grown in RPMI1640 with untreated serum (RPMI+s) (AID 1963881); conditions: Potency: viability; note: nearly all actives have a fitted effect of over 35% in size;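 for Viability: 100% = DMSO wells and 0% = empty wells without cells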
# Outline: as §1
# [10] = Quantitative highthroughput screen to assess conditional lethalithy of SEM cells grown in Human Plasma-Like Medium with dialyzed fetal bovine serum (HPLM+ds) (AID 1963882); note: nearly all actives have a fitted effect of over 35% in size
# Outline: as §1
# [11] = Quantitative highthroughput screen to assess conditional lethalithy of SEM cells grown in RPMI1640 with unreated serum (RPMI+s) (AID 1963883); conditions: SEM B-ALL cells, CellTiter-Glo viability, 48 h; viability: at 45.8 µM (top of the series); note: nearly all actives have a fitted effect of over 35% in size;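 for Viability: 100% = DMSO wells and 0% = empty wells without cells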
# Outline: as §1
# [12] = Cellular viability qHTS for adrenocortical cancer (ACC) cell line NCI-H295R (AID 1963990); conditions: CellTiter-Glo ATP luminescence, 48 h; activity change, negative = viability loss: at 46.1 µM (top of the series); note: nearly all actives have a fitted effect of over 60% in size;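 for activity change, negative = viability loss: 0% = DMSO only wells and -100% = full killing with cytotoxic reference compound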
# Outline: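 CellTiter-Glo ATP luminescence, read 48 h after compound addition, measured viability of NCI-H295R adrenocortical cells grown serum-free with ITS. Final concentrations spanned up to 46 uM. Data normalized to DMSO and doxorubicin, fitted for IC50 and maximal response.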
# [13] = Cellular viability qHTS for adrenocortical cancer (ACC) cell line SW-13 (AID 1963989); conditions: SW-13 ACC cells viability, CellTiter-Glo, 48 h; activity (max response): stronger effect = lower value; note: nearly all actives have a fitted effect of over 65% in size;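 for activity (max response): cells grown in serum-free medium with ITS supplement; % is set by controls: 0 for no effect and ±100 for the full control effect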
# Outline: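 Viability was read as CellTiter-Glo luminescence after 48 h compound treatment (up to 46 uM final) of SW-13 cells grown serum-free; titration curves were fit with a four-parameter logistic model to give IC50 and efficacy.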
# [14] = Quantitative highthroughput screen to assess conditional lethalithy of SEM cells grown in RPMI1640 with dialyzed fetal bovine serum (RPMI+ds) (AID 1963884); conditions: SEM B-ALL cells, RPMI+dialyzed FBS, CellTiter-Glo viability, 48 h; viability: at 45.8 µM (top of the series); note: nearly all actives have a fitted effect of over 35% in size;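 for Viability: 100% = DMSO control wells and 0% = empty wells without cells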
# Outline: as §1
# Potency is the fitted concentration of half-maximal effect; tags give direction and shape of the fitted curve.
# Chain of UniProt P24462 (P24462 whole entry, looked up): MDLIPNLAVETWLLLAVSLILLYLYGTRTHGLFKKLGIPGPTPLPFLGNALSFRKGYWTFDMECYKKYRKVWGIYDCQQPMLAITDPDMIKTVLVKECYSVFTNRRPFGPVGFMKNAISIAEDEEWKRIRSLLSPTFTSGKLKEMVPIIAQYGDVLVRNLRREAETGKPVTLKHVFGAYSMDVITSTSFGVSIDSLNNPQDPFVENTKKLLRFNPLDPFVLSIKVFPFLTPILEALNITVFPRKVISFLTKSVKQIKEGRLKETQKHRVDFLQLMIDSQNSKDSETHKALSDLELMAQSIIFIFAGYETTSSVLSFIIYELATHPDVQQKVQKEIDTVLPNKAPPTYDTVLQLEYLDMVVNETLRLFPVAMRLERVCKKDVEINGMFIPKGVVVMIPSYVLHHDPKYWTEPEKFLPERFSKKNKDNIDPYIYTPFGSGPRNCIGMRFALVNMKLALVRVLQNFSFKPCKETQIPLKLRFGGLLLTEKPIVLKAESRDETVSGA
Compound,Potency [1],Potency [2],Potency [3],Potency [4],Potency [5],Potency [6],Potency [7],Potency [8],Potency [9],Potency [10],Potency [11],Potency [12],activity (max response) [13],Potency [14],Potency [13]
Cc1cc(=O)c2c(O)c3c(O)cc(=O)c4c3c3c(cc(O)c1c23)C(C)(C)C=4O,"inconclusive: 12 µM [inhibitor, partial curve, poor fit]","inconclusive: 5.8 µM [cytotoxic, partial curve, poor fit]","inconclusive: 7.31 µM [cytotoxic, partial curve, poor fit]","inconclusive: 26.4 µM [cytotoxic, single point]","inconclusive: 37.2 µM [cytotoxic, single point]","inconclusive: 33.2 µM [cytotoxic, single point]","inconclusive: 37.2 µM [cytotoxic, single point]","inconclusive: 29.6 µM [cytotoxic, single point]","inconclusive: 33.2 µM [cytotoxic, single point]",inactive,"inconclusive: 37.2 µM [cytotoxic, single point]",active: 2.24 µM,,,
COc1cc2c(cc1OC)CN(CCc1ccc(NC(=O)c3cccc4c(=O)c5cccc(OC)c5[nH]c34)cc1)CC2,"inconclusive: 3.16 µM [inhibitor, full curve, poor fit]","inconclusive: 20.6 µM [cytotoxic, partial curve] and inconclusive: 5.25 µM [cytotoxic, full curve]","inconclusive: 14.6 µM [cytotoxic, partial curve] and inconclusive: 13.2 µM [cytotoxic, partial curve]",,"inconclusive: 3.72 µM [cytotoxic, full curve]",active: 1.32 µM,,active: 2.96 µM,,,active: 1.05 µM,,inactive: -3.54%,,
NS(=O)(=O)c1ccc(NC2=CC(=O)c3ccccc3C2=O)cc1,"inconclusive: 0.316 µM [inhibitor, full curve, poor fit]","inconclusive: 2.63 µM [cytotoxic, full curve]","inconclusive: 2.09 µM [cytotoxic, full curve]",inactive,,,inactive,,,"inconclusive: 2.35 µM [cytotoxic, full curve, poor fit]","inconclusive: 3.32 µM [cytotoxic, full curve]",,,"inconclusive: 10.5 µM [cytotoxic, partial curve, poor fit]",
CCCCCCNC(=O)n1cc(F)c(=O)[nH]c1=O,"inconclusive: 43.6 µM [inhibitor, single point]","inconclusive: 1.5 µM [cytotoxic, full curve, poor fit] and active: 1.05 µM","inconclusive: 0.596 µM [cytotoxic, full curve]",,,"inconclusive: 13.2 µM [cytotoxic, partial curve, poor fit]","inconclusive: 18.7 µM [cytotoxic, partial curve, poor fit]","inconclusive: 13.2 µM [cytotoxic, partial curve, poor fit]","inconclusive: 29.6 µM [cytotoxic, partial curve, poor fit]",,,"inconclusive: 9.2 µM [cytotoxic, partial curve, poor fit]",,"inconclusive: 20.9 µM [cytotoxic, partial curve]",
Oc1ccc(OCc2ccccc2)cc1,"inconclusive: 38.9 µM [inhibitor, partial curve, poor fit]","inconclusive: 0.0944 µM [rising, full curve, poor fit]",inactive and active: 8.33 µM,,active: 18.7 µM,"inconclusive: 16.6 µM [cytotoxic, partial curve]",active: 7.43 µM,"inconclusive: 4.69 µM [cytotoxic, full curve]",active: 3.72 µM,"inconclusive: 11.8 µM [cytotoxic, partial curve, poor fit]","inconclusive: 13.2 µM [cytotoxic, partial curve, poor fit]","inactive and inconclusive: 501 nM [cytotoxic, full curve, poor fit]",,"inconclusive: 16.6 µM [cytotoxic, partial curve, poor fit]","inconclusive: 12.6 µM [cytotoxic, partial curve]"
CC1(C)CC(=O)c2c(C(F)(F)F)nn(-c3ccc(C(N)=O)c(NC4CCC(OC(=O)CN)CC4)c3)c2C1 (centres undefined),active: 15.1 µM,"inconclusive: 18.4 nM [cytotoxic, full curve] and inconclusive: 26.3 nM [cytotoxic, full curve]",active: 51.7 nM and active: 37.2 nM,,active: 0.296 µM,active: 0.332 µM,"inconclusive: 0.469 µM [cytotoxic, full curve]","inconclusive: 0.332 µM [cytotoxic, full curve]","inconclusive: 0.235 µM [cytotoxic, full curve]",,active: 0.264 µM,,,active: 0.296 µM,active: 0.282 µM
CS(=O)c1ccc(-c2nc(-c3ccc(F)cc3)c(-c3ccncc3)[nH]2)cc1 (centres undefined),inactive,"inconclusive: 52.5 µM [cytotoxic, partial curve, poor fit] and inconclusive: 16.4 µM [cytotoxic, partial curve]","inconclusive: 29.5 µM [cytotoxic, single point]",active: 6.79 µM,active: 6.79 µM,active: 6.05 µM,,active: 8.55 µM,,,,,,active: 5.4 µM,
Cc1cc(O)c2c(c1)C(=O)c1cccc(O)c1C2=O,"inconclusive: 2 µM [inhibitor, full curve]",inactive,inactive,,inactive,active: 20.9 µM,,"inconclusive: 20.9 µM [cytotoxic, single point]",inactive,"inconclusive: 8.33 µM [cytotoxic, full curve]","inconclusive: 10.5 µM [cytotoxic, partial curve]",,,"inconclusive: 13.2 µM [cytotoxic, partial curve]",
O=C(CCCN1CCC(O)(c2ccc(Cl)cc2)CC1)c1ccc(F)cc1,"inconclusive: 1.38 µM [inhibitor, full curve]","inconclusive: 11.9 µM [cytotoxic, partial curve]","inconclusive: 16.8 µM [cytotoxic, partial curve, poor fit]",,"inconclusive: 29.6 µM [cytotoxic, single point]",,inactive,,,inactive,inactive,"inconclusive: 29.1 µM [cytotoxic, single point]",,,"inconclusive: 23.1 µM [cytotoxic, single point]"
Nc1nc2c(ncn2COC(CO)CO)c(=O)[nH]1,"inconclusive: 34.7 µM [inhibitor, single point]","inconclusive: 33.5 µM [cytotoxic, partial curve, poor fit] and inactive",inactive,active: 26.4 µM,,active: 23.5 µM,"inconclusive: 33.2 µM [cytotoxic, single point]","inconclusive: 37.2 µM [cytotoxic, single point]","inconclusive: 29.6 µM [cytotoxic, single point]",,,"inconclusive: 13 µM [cytotoxic, partial curve]",,"inconclusive: 26.4 µM [cytotoxic, single point]",
CN(C)c1nc(Cc2ccc(NC(=O)c3ccc4ccccc4c3)cc2)nc(Cl)c1CC(=O)O,"inconclusive: 22.4 µM [inhibitor, partial curve, poor fit]",inactive,inactive,"inconclusive: 8.33 µM [cytotoxic, partial curve]","inconclusive: 0.833 µM [cytotoxic, full curve]","inconclusive: 1.18 µM [cytotoxic, full curve]","inconclusive: 7.43 µM [cytotoxic, partial curve, poor fit]",,,inactive,inactive,,,inactive,
Cn1cnc(-c2cc3nccc(Oc4ccc(NC(=S)NC(=O)Cc5ccccc5)cc4F)c3s2)c1,"inconclusive: 7.08 µM [inhibitor, full curve, poor fit]","active: 25.9 nM and inconclusive: 74.2 nM [cytotoxic, full curve]",active: 36.6 nM and active: 166 nM,,"inconclusive: 37.2 µM [cytotoxic, single point]",,,active: 18.7 µM,,,,,,,
Cc1ccc(C(=O)Nc2ccc(CN3CCN(C)CC3)c(C(F)(F)F)c2)cc1C#Cc1cnc2cccnn12,"inconclusive: 25.1 µM [inhibitor, single point]","inconclusive: 0.0037 µM [cytotoxic, full curve]","inconclusive: 0.0073 µM [cytotoxic, full curve]","inconclusive: 1.48 µM [cytotoxic, full curve]","inconclusive: 1.32 µM [cytotoxic, full curve]",active: 0.935 µM,"inconclusive: 3.72 µM [cytotoxic, full curve]","inconclusive: 1.87 µM [cytotoxic, full curve]",,"inconclusive: 1.32 µM [cytotoxic, full curve]","inconclusive: 1.05 µM [cytotoxic, full curve]",,,"inconclusive: 2.64 µM [cytotoxic, partial curve]",
